In all, about 33,000 sequences were measured (“E-score (-0.5 to 0.5)”: median about -0.035, highest 2% from about 0.34 on). This is one part of the list.
These sequences were tested against T1, Mot3 (UniProt P54785) (assay: PBM E-score (8-mer binding enrichment) (E-score (-0.5 to 0.5)); higher = stronger / more preferred TF binding; most listed sequences are background and not binding sites). Conditions: protein concentration: 200 nM; construct: GST-full length.
T1 sequence: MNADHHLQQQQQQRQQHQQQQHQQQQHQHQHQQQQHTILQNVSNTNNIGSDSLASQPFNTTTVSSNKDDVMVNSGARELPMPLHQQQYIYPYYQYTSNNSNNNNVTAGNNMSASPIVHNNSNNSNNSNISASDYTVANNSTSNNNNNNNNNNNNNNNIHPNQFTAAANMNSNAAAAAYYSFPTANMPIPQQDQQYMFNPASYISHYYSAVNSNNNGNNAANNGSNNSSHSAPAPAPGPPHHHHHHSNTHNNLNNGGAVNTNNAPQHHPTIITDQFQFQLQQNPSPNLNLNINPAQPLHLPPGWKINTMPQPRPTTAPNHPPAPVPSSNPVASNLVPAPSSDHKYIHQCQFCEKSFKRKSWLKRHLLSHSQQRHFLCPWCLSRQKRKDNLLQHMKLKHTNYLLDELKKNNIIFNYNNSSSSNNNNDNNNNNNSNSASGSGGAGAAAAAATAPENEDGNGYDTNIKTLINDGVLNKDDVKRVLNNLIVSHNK
Procedure: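 Universal 'all 10-mer' protein binding microarrays (Agilent AMADID 015681) probed with GST-tagged S. cerevisiae TFs (full-length or DBD) made by in vitro transcription/translation (PURExpress), about 100-200 nM. Bound TF was detected with fluorescent anti-GST. Each ungapped 8-mer (which stands for itself and its reverse complement) is scored by the PBM enrichment score (E-score), a modified Wilcoxon-Mann-Whitney statistic from -0.5 to +0.5, computed with the Universal PBM Analysis Suite. Scale: above 0.35 generally sequence-specific binding.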

Row | Sequence | PBM E-score
1 | CTGGGAAA | -0.155
2 | AGTCATAA | -0.206
3 | CAGAGCTG | -0.235
4 | AATCAGAC | -0.116
5 | CATCCACG | -0.0026
6 | CAATCGTG | 0.119
7 | CCGGGGCG | -0.387
8 | GCCATGCA | -0.135
9 | ATTCTTTA | 0.153
10 | GCCGTAAA | -0.0268
11 | CCACAACG | -0.00544
12 | TATCCGGA | -0.0397
13 | GGTAGTAA | 0.0182
14 | AAGGTCGA | -0.239
15 | GGTCGAAC | -0.0873
16 | CACCGTCA | -0.156
17 | AGATTGCG | -0.0144
18 | GTATCTCA | 0.0756
19 | GCGCGCTA | 0.0419
20 | CGCAAACA | 0.189
21 | CTTATAAA | 0.121
22 | ACGACCGC | -0.35
23 | CCCCTTGC | -0.152
24 | CAGTGGCC | -0.143
25 | CAAATAGC | -0.0997

Row | Sequence | PBM E-score
26 | CTCCTGTA | 0.105
27 | GTCTAGTA | -0.0337
28 | ATGGCTGC | -0.0779
29 | CCTAATAC | 0.0893
30 | ACGGAACG | 0.0378
31 | ACTAGTTA | 0.097
32 | TCAGAAGA | -0.257
33 | AGTCTTTC | -0.182
34 | CCTCGGGA | -0.328
35 | AACTACTC | -0.0654
36 | CACTCGGC | -0.104
37 | GCTTCTCA | -0.236
38 | CCGGTAGG | -0.0221
39 | AAGCGAAT | -0.022
40 | AACTTTAC | 0.182
41 | ATGCACCA | -0.108
42 | CGGGCAAC | -0.129
43 | GTACCACA | 0.0306
44 | CATAATAG | 0.137
45 | ACGCCTGG | -0.166
46 | GTTTTTTA | 0.0802
47 | CGACCCGC | -0.107
48 | CCATATCA | -0.256
49 | AGCTTCAT | -0.214
50 | AATCCCAT | -0.0717

Row | Sequence | PBM E-score
51 | CGAGATCG | -0.133
52 | GATCCCGC | -0.228
53 | AGACGAAA | -0.0417
54 | CCAGCGCC | -0.308
55 | TAATTGAA | 0.177
56 | CCGAGTCC | -0.248
57 | AAGATGCA | 0.0396
58 | CGCCTTTC | -0.036
59 | GGATACCC | -0.224
60 | CGCGTCCA | -0.216
61 | ATAAATGA | 0.0301
62 | CAATTGGC | -0.00766
63 | ACCGAACA | 0.139
64 | CCGGAGCA | -0.33
65 | GCTTGTAC | 0.242
66 | ATTCATAG | 0.013
67 | AGAGTTAG | -0.0306
68 | CTGTATAA | 0.0988
69 | AGCTTGCG | -0.139
70 | AATGTAGA | 0.221
71 | AGCTCTGC | -0.277
72 | TGTACAAA | 0.29
73 | TACCGCCA | -0.00906
74 | CTCAAAAG | 0.0588
75 | CGTATGCC | -0.126

Row | Sequence | PBM E-score
76 | GACATAGA | 0.0532
77 | GTATCCAC | -0.0662
78 | TTAGCAAA | 0.0611
79 | AAAGTGCG | -0.0132
80 | GCGCCAGA | -0.206
81 | TCCATTAA | 0.0521
82 | CTGAGAAG | -0.0561
83 | ATTGCCCA | 0.0652
84 | AGTCATCG | -0.131
85 | TCGTGTAA | 0.411
86 | ACTAACCC | 0.063
87 | GACGGAGA | -0.182
88 | AAATTAAT | 0.126
89 | GCCTTAGA | 0.00775
90 | CCTACACC | 0.136
91 | CATATGGA | -0.0698
92 | CGCCTATA | 0.134
93 | GAGCCGAC | -0.337
94 | TGACGCCA | 0.00608
95 | AAGGCCAA | 0.0261
96 | AACATCAT | 0.172
97 | AAGCCCAT | -0.253
98 | AGACCTAT | -0.0209
99 | CCTATTGA | 0.124
100 | CTTACTAA | 0.0438

Row | Sequence | PBM E-score
101 | GATGAGAC | -0.0653
102 | CGGGTCAG | -0.129
103 | CGCGAAAG | -0.0323
104 | CTGCCTTC | 0.2
105 | GCTCACCC | -0.265
106 | TACGATCA | -0.0275
107 | GCGCAAGA | -0.142
108 | ACAATCAT | 0.184
109 | ATGTCTTG | 0.0599
110 | AAGCGAAG | 0.0507
111 | AGTGAATG | -0.00718
112 | ATAGCGCA | -0.0413
113 | CGTGTATA | 0.4
114 | AACAAAAG | 0.152
115 | GAGCTAGA | -0.104
116 | CATCCAGC | -0.0348
117 | CCATGGCC | -0.145
118 | AGGCGTCC | 0.174
119 | GGCGGAAC | -0.0609
120 | CTCTGAGA | 0.0542
121 | GACTCTTA | -0.0822
122 | CCCTGAAC | 0.0649
123 | ACCGAGAA | -0.132
124 | CTCCTAAC | 0.107
125 | CTGTTTAC | 0.28

Row | Sequence | PBM E-score
126 | ACTCTGCC | 0.0189
127 | GCTATTTA | 0.024
128 | GAAGCATA | -0.181
129 | ATGACGGA | 0.0176
130 | AATCATCA | -0.117
131 | ACAGCAGG | 0.183
132 | CATGGAAA | 0.153
133 | GAGTGGGA | -0.22
134 | CCCATTAA | 0.143
135 | CCACGCGG | -0.17
136 | AAAAGACA | 0.0848
137 | ACGCACTG | 0.00111
138 | AACGTAGG | 0.143
139 | GACCGTCC | -0.367
140 | AACACGTA | 0.32
141 | GAGCGCTA | -0.2
142 | GCCAGGAA | 0.124
143 | AGTGACAT | 0.142
144 | CAAAGCTC | -0.185
145 | CCAAACAG | -0.0216
146 | GAGTAGAC | 0.00249
147 | CCAGTTAA | 0.169
148 | AATTCATA | -0.129
149 | CCATAGAC | -0.167
150 | GTTATCCA | 0.0204

Row | Sequence | PBM E-score
151 | TGGAACCA | -0.133
152 | CGGCAGAA | -0.235
153 | GGTCACGA | -0.176
154 | GCAGTGCC | 0.27
155 | ATATGTCA | 0.114
156 | CAAGGTGA | 0.0661
157 | ATAACCGA | -0.238
158 | GCCTATAC | 0.314
159 | AGATTCCT | 0.0382
160 | ACGAACCA | 0.0376
161 | CCATTTGC | -0.0613
162 | GCATCTGA | -0.26
163 | AAACGATT | -0.0409
164 | CAGCGAGG | -0.276
165 | CAAGTAAG | 0.205
166 | ATAGCTCG | -0.117
167 | CTACCAGA | 0.0177
168 | ACGACACA | 0.237
169 | ATAGCCAT | -0.107
170 | AGTTGGGA | -0.0558
171 | GAGTGAGA | -0.143
172 | ATTCGACC | -0.261
173 | CGCGTTCC | 0.14
174 | TGTAATAA | 0.375
175 | CTGATGAA | -0.0356

Row | Sequence | PBM E-score
176 | AACCTGTC | -0.0306
177 | CGCCGAAC | -0.182
178 | GTTTGCGA | 0.101
179 | ATGCGTAC | 0.205
180 | TCACAAGA | -0.0781
181 | CGCAGCCA | -0.271
182 | GGTAAACC | -0.211
183 | AATCCAAT | 0.00584
184 | GCCATAAA | -0.062
185 | GTACGTAA | 0.327
186 | AACAGAGT | 0.0995
187 | AATGCGAA | 0.0627
188 | GATGGATA | -0.2
189 | TAAGGCGA | -0.0665
190 | ACCTTACT | 0.0387
191 | CCCAAGAA | -0.0638
192 | ATAACTCG | -0.00659
193 | GTTATAAC | 0.117
194 | CGAGCTTC | -0.0561
195 | AGCGCGCA | 0.00343
196 | AATCCCTC | -0.24
197 | GCCTATGA | 0.232
198 | ACCATCTA | -0.076
199 | AGTTCAAG | 0.0525
200 | CCATACTC | -0.245

Row | Sequence | PBM E-score
201 | CATTTGCA | 0.0857
202 | AAGTTGAA | 0.016
203 | AGAACCTA | 0.161
204 | ATGTCTCG | -0.135
205 | ACCACCGG | -0.266
206 | CAGCAAGC | -0.332
207 | ACTCACTC | -0.0672
208 | CACCACTC | -0.283
209 | GTCACGCA | 0.0746
210 | ACTATAGA | -0.103
211 | CCATACAG | -0.0635
212 | ACCCCTGG | -0.397
213 | GAGCCCCA | -0.213
214 | AATTGAAC | 0.136
215 | AGCGGCAA | -0.145
216 | CCCGCCCC | -0.08
217 | ATCACTAA | -0.0234
218 | CCATGCGA | -0.0741
219 | AAGAATCC | 0.126
